Among all 310,000 compounds or so, about 2,200 (0.71%) showed an effect of 50% or more. The effect is printed as a negative number. Some of the results follow.
Target: human ether-à-go-go-related gene (hERG) potassium channel (human, UniProt Q12809)
Assay: primary screen, population patch clamp on CHO cells stably expressing hERG

Chain of human ether-à-go-go-related gene (hERG) potassium channel (Q12809 whole entry, looked up): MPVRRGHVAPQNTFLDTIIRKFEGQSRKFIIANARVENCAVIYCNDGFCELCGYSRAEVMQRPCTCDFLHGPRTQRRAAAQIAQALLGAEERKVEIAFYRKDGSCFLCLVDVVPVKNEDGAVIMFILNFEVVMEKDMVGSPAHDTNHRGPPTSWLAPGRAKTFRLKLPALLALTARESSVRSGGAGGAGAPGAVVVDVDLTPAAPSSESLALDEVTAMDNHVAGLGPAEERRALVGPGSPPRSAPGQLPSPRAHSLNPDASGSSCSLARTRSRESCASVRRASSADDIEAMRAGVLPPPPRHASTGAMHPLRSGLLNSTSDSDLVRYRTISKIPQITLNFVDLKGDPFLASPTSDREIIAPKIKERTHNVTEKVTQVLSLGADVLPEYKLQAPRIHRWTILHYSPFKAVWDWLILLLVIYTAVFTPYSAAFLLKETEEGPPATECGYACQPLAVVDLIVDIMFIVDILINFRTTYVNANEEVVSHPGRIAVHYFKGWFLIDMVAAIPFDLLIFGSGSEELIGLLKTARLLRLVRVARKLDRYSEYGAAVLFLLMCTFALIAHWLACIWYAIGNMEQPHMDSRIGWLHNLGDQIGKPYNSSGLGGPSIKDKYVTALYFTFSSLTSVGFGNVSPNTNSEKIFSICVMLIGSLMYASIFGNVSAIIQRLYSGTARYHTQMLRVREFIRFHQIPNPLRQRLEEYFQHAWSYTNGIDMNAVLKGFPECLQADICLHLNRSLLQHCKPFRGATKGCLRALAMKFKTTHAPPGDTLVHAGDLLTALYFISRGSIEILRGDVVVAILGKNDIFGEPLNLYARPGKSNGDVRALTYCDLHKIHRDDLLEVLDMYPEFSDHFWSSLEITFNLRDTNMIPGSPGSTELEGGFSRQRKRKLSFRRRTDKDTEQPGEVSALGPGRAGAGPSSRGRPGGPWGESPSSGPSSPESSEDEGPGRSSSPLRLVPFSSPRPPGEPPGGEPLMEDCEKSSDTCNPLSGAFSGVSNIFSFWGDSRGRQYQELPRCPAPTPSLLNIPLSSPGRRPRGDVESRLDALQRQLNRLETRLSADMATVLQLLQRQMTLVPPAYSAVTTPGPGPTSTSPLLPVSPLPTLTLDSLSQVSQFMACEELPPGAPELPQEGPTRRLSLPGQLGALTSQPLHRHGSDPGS

SMILES	hERG current change (%, negative = inhibition) at 1uM [%]
CCCCn1c(N)c(N(Cc2ccccc2OC)C(=O)CCC(C)C)c(=O)[nH]c1=O	15
COc1ccc(C(=O)c2cnc(C(C)C)n2C)cc1	11.9
Cc1cc(NC(=O)COC(=O)C2COc3ccccc3O2)no1 (stereo not drawn)	11.3
Cc1cccc(NC(=O)CSc2nnc([C@@H](N)Cc3ccccc3)o2)c1C.Cl	7.13
CCOC(=O)Cc1csc(NC(=O)CN(C)S(=O)(=O)c2cccc3cccnc23)n1	0.637
CC(C)[C@H](NC(=O)c1ccccc1F)C(=O)Nc1nc2c(s1)CCCC2	0.953
COC(=O)c1nnc(-c2ccccc2)c(-c2ccccc2)n1	9.12
CCCOc1nc2ccccc2cc1/C=C/C(=O)O	1.51
CC(OC(=O)CNC(=O)c1ccco1)C(=O)N(C)c1ccccc1 (stereo not drawn)	12
CC(=O)OCCNC(=O)c1cccnc1	14.8
CN1CCN(c2nc3c(c(=O)[nH]c(=O)n3C)n2Cc2ccc(Cl)cc2)CC1	7.1
O=S(=O)(CC(c1ccccc1)N1CCCCC1)c1ccc(Cl)cc1 (stereo not drawn)	7.99
Cc1ccc(S(=O)(=O)NC(CC(=O)O)c2ccco2)cc1 (stereo not drawn)	2.86
COc1cc(C(N)=O)cc(Br)c1OC	-12.3
Cc1ccccc1C(=O)NC(=S)Nc1ccc(Cc2ccncc2)cc1	11.2
CCN(CC)CCN(Cc1cc2ccc(C)c(C)c2[nH]c1=O)C(=S)NCc1ccco1	-21.7
CCOC(=O)c1sc(NC(=O)COC(=O)c2ccco2)nc1C	12.5
CC(C)C(=O)NNC(=O)c1csc(-c2cccs2)n1	12.8
C/C(=N/Nc1cc(-c2ccccc2)nc(-c2ccccc2)n1)c1ccc(O)cc1	13.4
CCOC(=O)c1c(N)nn(C(=O)CC)c1-c1ccccc1	10.3
Cc1cccc(C(=O)NCC(=O)N(C)CC(=O)Nc2ccc(N3CCOCC3)cc2)c1	12.7
O=C(O)/C=C\C(=O)Nc1ccccc1F	13.3
CCOC(=O)/C(C#N)=C/c1cccc([N+](=O)[O-])c1	16.8

SMILES	hERG current change (%, negative = inhibition) at 1uM [%]
C=CCSc1n[nH]c(-c2cccs2)n1	11.6
O=C(COc1cc(Cl)c(Cl)cc1Cl)NC(=O)Nc1ccc2c(c1)OCCO2	12.2
CCO[C@@H]1OC(C(N)=O)=C[C@H](c2ccc(Br)cc2)[C@H]1CCCO	2.68
CN1CC=C2C(C#N)=C(N)C(C#N)(C#N)[C@H](c3cccc(Cl)c3)C2C1 (stereo partly drawn)	1.39
COc1ccc(NC(=O)NCc2cccnc2)cc1OC	19
COc1cccc(-n2c(=S)[nH]c3c(oc4ccccc43)c2=O)c1	11.3
COC(=O)CCC(=O)OC1(C)C(=O)C=C2C=C(C3CC3)N(CCN3CCOCC3)C=C2C1=O (stereo not drawn)	11.4
O=C(Nc1nc(-c2ccc(Cl)cc2)cs1)NC1CCCCC1	8.27
CCN(CC)CCNC(=O)c1ccc(CS(=O)(=O)c2ccccc2C)o1	-4.67
C/C(=N\NC(=O)c1ccco1)c1ccc(NC(=O)c2cccs2)cc1	15.2
Cc1cccc(N2CCN(C(=O)C34CC5CC(CC(C5)C3)C4)CC2)c1C	13.6
CCCC(=O)Nc1cc(-c2nn(C)c(=O)c3ccccc23)ccc1OC	-0.736
COc1ccc(C(=O)Nc2ccccc2N2CCOCC2)cc1S(=O)(=O)N1CCCC1	0.608
C#CCOCCOCCOCCNc1nc(N2CCN(C(=O)Cn3cc(CCCC[NH3+])nn3)CC2)nc(N2CCN(C(=O)[C@H]([C@@H](C)CC)n3cc(CCC[NH+]=C(N)N)nn3)CC2)n1.[Cl-]	13.6
Cc1cc(F)ccc1NC(=O)Nc1ccc2c(c1)OCO2	10
CC1(C)CC(=O)C=C(NCCN2CCN(C(=O)Nc3ccccc3)CC2)C1	-2.86
O=C(CSc1nnnn1Cc1ccccc1)c1ccccc1F	13.5
Cc1ccsc1/C=N/n1cnnc1	14.1
CCOC(=O)c1c(NC(=O)Cn2cnc([N+](=O)[O-])n2)sc(C)c1C	8.52
COc1ccccc1OCCNC(=O)Cc1ccc(S(=O)(=O)N2CCOCC2)s1	5.3
COc1ccc(-c2cc(-c3ccc(O)cc3)nc(N)c2C#N)cc1	6.2
O=C(COc1ccc(Cl)cc1)Nc1ccc2c(c1)CCC2	-0.813
CN(C)c1nc(N/N=C/c2c[nH]c3ccccc23)nc(N2CCOCC2)n1	8.53

SMILES	hERG current change (%, negative = inhibition) at 1uM [%]
CC(C)CC(=O)Nc1ccc(Nc2ccccc2)cc1	1.27
CCC[C@H](CN[C@@H](CNC)[C@H](C)CC)NCCc1cc(C(F)(F)F)cc(C(F)(F)F)c1	0.0872
CCN(CC)CCCNc1cc2n(c(=O)n1)CCc1cc(OC)c(OC)cc1-2	0.0913
CC(C)(C)C1CCC(=NNC(=O)c2ccco2)CC1 (stereo not drawn)	9.96
Cc1ccccc1-n1nc(-c2ccc(N)cc2)cc1N	6.98
Cc1cccc(OCC(=O)NC(=S)NNC(=O)c2ccncc2)c1	10.2
O=C(CN(Cc1cccs1)S(=O)(=O)c1ccc(S(=O)(=O)NC2CCCCC2)cc1)Nc1ccccc1	4.16
CCc1ccccc1NC(=O)NCCN1CCCCC1	8.55
Cc1ccc2c(c1)c(N=O)c(O)n2Cc1ccc(Cl)cc1	3.4
CC(=O)c1cccc(NC(=O)/C(=C/c2ccco2)NC(=O)c2ccco2)c1	10.1
Cc1cccc(NS(=O)(=O)c2ccc3c(c2)oc(=O)n3C)c1C	11.3
O=C(OCC(=O)N1CCCC1=O)c1cc(Cl)ccc1O	-5.3
Cc1ccccc1NS(=O)(=O)c1ccc(OCCNS(C)(=O)=O)cc1	9.78
CCc1ccc(N(CC(=O)NC(C)C)C(=O)CCC(=O)Nc2nccs2)cc1	13
CCc1cc(=O)oc2cc(OC(C)C(=O)O)c(Cl)cc12 (stereo not drawn)	14.3
COCC(=O)Nc1ccc(Br)cc1	5.29
COc1ccc(NS(=O)(=O)c2ccc3c(c2)N(C(C)=O)CC(C)S3)c(OC)c1 (stereo not drawn)	11.1
CCCOC(=O)c1ccc(NC(=O)c2c(Cl)ccc(Cl)c2OC)cc1	4.49
CC1(NC(=O)CC[N+](C)(C)CCO)CS(=O)(=O)CC1S(=O)(=O)[O-] (stereo not drawn)	2.79
CN1C2CCC1CC(NS(=O)(=O)c1cccc(C(F)(F)F)c1)C2 (stereo not drawn)	8.96
COC(=O)C1=C(c2ccc3ccccc3c2)C[C@@H]2CC[C@H]1N2C(=O)N1CCCCC1	10.9
Cc1noc(C)c1CN(C(=S)NC1CC1)c1ccccc1	8.04
COc1ccc(N=C(C)C2=C(O)COC2=O)cc1	4.93

SMILES	hERG current change (%, negative = inhibition) at 1uM [%]
Cc1[nH]cc(Br)c(=O)c1Oc1ncc(C(F)(F)F)cc1Cl	4.01
Cc1ccc(/C=C/C(=O)N2CCN(Cc3ccccc3)CC2)o1	4.76
Cc1ccc(C(C)C)c(OCC(=O)c2c(O)c3ccccc3oc2=O)c1	-8.35
CCN(CC)CCN1C(=O)C(O)=C(C(C)=O)C1c1ccccc1[N+](=O)[O-] (stereo not drawn)	13.8
Cc1ccc(NC(=O)C2C3CCCC2C3c2ccccc2)cc1 (stereo not drawn)	6.16
Cc1nn(C)c(Cl)c1C(N)=O	9.89
COc1ccc(Cc2nnc(N/N=C/c3ccc(O)cc3)[nH]c2=O)cc1OC	5.73
COC(=O)C1=C(C)NC(=O)CC1c1ccccc1OC (stereo not drawn)	9.49
COC(=O)c1ccc(CN2CCC(CO)(Cc3ccccc3Cl)CC2)cc1	-28.4
Cn1c(=O)c2c(nc(SCc3ccccc3)n2Cc2ccc(Cl)cc2)n(C)c1=O	10.5
CNC(=O)c1ccc(NC(=O)c2cc(S(=O)(=O)N3CCOCC3)ccc2N2CCCC2)cc1	13.5
COc1ccc(/C=C/C(=O)c2ccc3ccccc3c2O)cc1CN1CCOCC1	4.2
COC(=O)c1ccc(NC(C)C(=O)OC)c([N+](=O)[O-])c1 (stereo not drawn)	24.8
COc1ccc([C@H]2CC(=O)C=C(c3cccc(Br)c3)C2)cc1	8.1
Cc1ccc(S(=O)(=O)N2CCN(CC(=O)N/N=C/c3ccc(Br)s3)CC2)cc1	-0.836
Cc1nn(C(C)C(=O)c2cccc(Cl)c2)c(C)c1[N+](=O)[O-] (stereo not drawn)	7
O=C(NNC(=S)Nc1ccccc1)c1ccco1	-9.43
Cc1ccc(N(C(=O)c2cccs2)C2C=CS(=O)(=O)C2)cc1 (stereo not drawn)	1.18
CCOC12CC(C)(C)CC(C)(CC3=C1C(=O)CC(C)(C)C3)C2 (stereo not drawn)	8.46
COc1ccc(CNC(=O)[C@@H](NC(=O)C2CCN(C(=O)[C@@H](N)CC(C)C)CC2)C(C)C)cc1	17.5
O=C1CN(C(=O)c2ccccc2[N+](=O)[O-])C(c2ccccc2)c2cc(Br)ccc2N1 (stereo not drawn)	-16

— publication PMC4336329 (PLoS ONE, 2015)
